# Results reported in the antibiotic and cytotoxicity screens of Wong et al. (2023).
# The list shows a part of the results.
# Experiments:
# HSkMC = human skeletal muscle cells; experiment: cytotoxicity call (relative viability < 0.9); details: 10 µM
# HepG2 = experiment: cytotoxicity call (relative viability < 0.9); details: 10 µM
# S. aureus RN4220 = experiment: growth inhibition call (relative growth <= 0.2); details: 50 µM
SMILES,cytotoxicity call (HSkMC),cytotoxicity call (HepG2),growth inhibition call (S. aureus RN4220)
C[C@H]1CN([C@@H](C)CO)C(=O)c2cc(NC(=O)C3CCCCC3)ccc2O[C@H]1CN(C)Cc1ccc(Oc2ccccc2)cc1,inactive,inactive,inactive
C[C@H](CO)N1C[C@H](C)[C@@H](CN(C)S(=O)(=O)c2cccs2)Oc2ccc(NC(=O)CCCN(C)C)cc2C1=O,inactive,inactive,inactive
COc1ccc(C#Cc2ccc3c(c2)[C@]2(C(=O)N3)[C@H](C(=O)N3CCc4cc(OC)c(OC)cc4C3)[C@H]3C(=O)O[C@H](c4ccccc4)[C@H](c4ccccc4)N3[C@@H]2c2ccc(O)cc2)cc1,inactive,inactive,inactive
CCCCCCCCCCCCCCCCOP(=O)([O-])OCC[N+](C)(C)C,inactive,inactive,inactive
C[C@@H]1CN([C@@H](C)CO)C(=O)c2cc(NC(=O)Cn3cnnn3)ccc2O[C@@H]1CN(C)C(=O)Nc1ccc2c(c1)OCO2,inactive,inactive,inactive
CCN(CC)c1ccc(N2CC=C[C@@]34O[C@@H]5/C=C\CC[C@H](C)OC(=O)[C@@H]5[C@H]3C(=O)N(CCO)[C@@H]4C2=O)cc1,inactive,inactive,inactive
C[C@H]1CN([C@@H](C)CO)C(=O)c2cc(NC(=O)CCC(F)(F)F)ccc2O[C@@H]1CN(C)C(=O)Nc1ccc(C(F)(F)F)cc1,inactive,inactive,inactive
C[C@@H]1CN([C@@H](C)CO)C(=O)c2cccc(NS(=O)(=O)c3ccccc3)c2O[C@@H]1CN(C)C(=O)Nc1cccc2ccccc12,inactive,inactive,inactive
Nc1ncnc2c1ncn2CCN1CCCCC1,inactive,inactive,inactive
C[C@H]1CN([C@@H](C)CO)C(=O)c2cccc(NC(=O)c3ccc(-c4nccs4)cc3)c2O[C@H]1CN(C)S(=O)(=O)c1cn(C)cn1,inactive,inactive,inactive
Cc1noc(C)c1S(=O)(=O)Nc1ccc2c(c1)C(=O)N([C@H](C)CO)C[C@H](C)[C@@H](CN(C)C(=O)Nc1ccccc1)OCCCC[C@@H](C)O2,inactive,inactive,inactive
Cc1cc(C(=O)N2CC[C@@]2(C)C(=O)NS(=O)(=O)c2ccc(C#N)cc2)nn1C,inactive,inactive,inactive
Cc1noc(C)c1S(=O)(=O)Nc1ccc2c(c1)CC(=O)N([C@H](C)CO)C[C@H](C)[C@@H](CN(C)Cc1ccc(C(=O)O)cc1)O2,inactive,inactive,inactive
C[C@@H]1CN([C@@H](C)CO)C(=O)c2cc(NC(=O)c3ccccc3)ccc2O[C@@H](C)CCCCO[C@H]1CN(C)Cc1ccc(C(F)(F)F)cc1,inactive,active,inactive
COc1ccc(S(=O)(=O)Nc2ccc3c(c2)C(=O)N([C@@H](C)CO)C[C@@H](C)[C@@H](CN(C)S(=O)(=O)c2c(C)noc2C)O3)cc1,inactive,inactive,inactive
C[C@@H]1CN([C@@H](C)CO)C(=O)Cc2cc(NC(=O)Nc3ccc(F)cc3)ccc2O[C@H]1CN(C)Cc1ccc(Oc2ccccc2)cc1,inactive,active,inactive
CNC(=S)NCc1ccco1,inactive,inactive,inactive
C[C@@H]1CCCCO[C@H](CN(C)S(=O)(=O)c2ccc(Cl)cc2)[C@@H](C)CN([C@H](C)CO)C(=O)c2cc(NC(=O)C3CCCCC3)ccc2O1,inactive,inactive,inactive
CC(C)NC(=O)N(C)C[C@H]1Oc2ccc(NC(=O)Cc3ccccc3)cc2C(=O)N([C@@H](C)CO)C[C@H]1C,inactive,inactive,inactive
C[C@H]1CC=CC[C@H](c2cccc(Cl)c2)NC(=O)[C@@H](Cc2ccccc2)N(C)C(=O)c2ccccc2O1,inactive,inactive,inactive
C[C@H](CO)N1C[C@H](C)[C@H](CN(C)Cc2ccc3c(c2)OCO3)Oc2cc(C#CCN(C)C)ccc2S1(=O)=O,inactive,inactive,inactive
C[C@@H]1CCCCO[C@H](CN(C)Cc2ccccc2)[C@H](C)CN([C@@H](C)CO)C(=O)c2cc(NS(=O)(=O)c3cccs3)ccc2O1,inactive,inactive,inactive
C[C@@H]1CN([C@H](C)CO)C(=O)c2cc(NC(=O)CCCN(C)C)ccc2O[C@H]1CN(C)S(=O)(=O)c1cccs1,inactive,inactive,inactive
CO[C@H]1O[C@H](COS(=O)(=O)O)[C@@H](O[C@@H]2O[C@@H](C(=O)O)[C@@H](OC)[C@H](O)[C@H]2OS(=O)(=O)O)[C@H](O)[C@H]1NS(=O)(=O)O,inactive,inactive,inactive
